Holding throughout (test): cell-based or functional assay
In assay [1] the target is T1, human RXFP1 receptor (human, UniProt Q9HBX9 1-757).
T1 sequence (looked up): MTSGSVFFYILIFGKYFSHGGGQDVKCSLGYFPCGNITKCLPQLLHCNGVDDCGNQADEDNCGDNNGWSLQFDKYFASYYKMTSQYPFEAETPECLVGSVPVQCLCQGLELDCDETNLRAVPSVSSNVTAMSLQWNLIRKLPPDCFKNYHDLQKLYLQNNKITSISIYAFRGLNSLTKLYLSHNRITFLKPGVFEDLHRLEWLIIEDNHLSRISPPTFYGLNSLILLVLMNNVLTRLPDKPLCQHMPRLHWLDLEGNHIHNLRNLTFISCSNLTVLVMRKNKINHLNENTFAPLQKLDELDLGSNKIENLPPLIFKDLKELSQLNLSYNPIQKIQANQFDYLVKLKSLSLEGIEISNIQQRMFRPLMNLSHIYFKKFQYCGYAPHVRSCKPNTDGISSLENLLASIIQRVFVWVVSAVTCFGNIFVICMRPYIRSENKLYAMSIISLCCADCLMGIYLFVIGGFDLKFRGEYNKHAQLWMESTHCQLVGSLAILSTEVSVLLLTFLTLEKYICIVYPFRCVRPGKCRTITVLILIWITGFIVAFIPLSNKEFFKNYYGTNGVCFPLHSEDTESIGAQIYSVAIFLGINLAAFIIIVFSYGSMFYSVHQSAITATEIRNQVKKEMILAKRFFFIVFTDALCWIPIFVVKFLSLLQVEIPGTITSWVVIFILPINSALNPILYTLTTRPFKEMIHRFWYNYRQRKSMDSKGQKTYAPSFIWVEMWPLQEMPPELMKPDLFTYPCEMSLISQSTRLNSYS

The target of assay [2] is T1, human RXFP1 receptor. This is another data set of the same source.
Another assay addresses T2, human RXFP2 (human, UniProt Q8WXD0 1-754).
T2 sequence (looked up): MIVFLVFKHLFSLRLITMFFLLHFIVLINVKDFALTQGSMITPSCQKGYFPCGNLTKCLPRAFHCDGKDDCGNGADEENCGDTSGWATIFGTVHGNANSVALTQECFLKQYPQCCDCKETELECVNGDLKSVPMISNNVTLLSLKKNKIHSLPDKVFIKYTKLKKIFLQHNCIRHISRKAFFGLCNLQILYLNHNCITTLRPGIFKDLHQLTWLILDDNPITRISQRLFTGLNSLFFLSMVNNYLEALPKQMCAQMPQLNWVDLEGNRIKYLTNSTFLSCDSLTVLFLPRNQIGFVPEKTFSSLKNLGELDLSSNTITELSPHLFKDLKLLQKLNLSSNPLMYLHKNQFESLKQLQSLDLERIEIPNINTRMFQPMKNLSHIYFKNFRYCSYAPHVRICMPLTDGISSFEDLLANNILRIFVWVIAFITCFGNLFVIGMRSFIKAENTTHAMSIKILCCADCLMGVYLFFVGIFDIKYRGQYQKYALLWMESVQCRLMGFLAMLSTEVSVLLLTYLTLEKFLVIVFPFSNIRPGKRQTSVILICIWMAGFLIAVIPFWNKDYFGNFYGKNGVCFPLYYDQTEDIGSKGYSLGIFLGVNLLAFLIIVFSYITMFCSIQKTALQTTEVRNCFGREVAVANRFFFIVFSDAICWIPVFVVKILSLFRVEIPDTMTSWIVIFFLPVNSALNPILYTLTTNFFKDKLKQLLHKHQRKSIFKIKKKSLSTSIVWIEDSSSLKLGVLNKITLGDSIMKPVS

Another assay addresses T3, mouse RXFP1 receptor (mouse, UniProt Q6R6I7 1-758).
T3 sequence (looked up): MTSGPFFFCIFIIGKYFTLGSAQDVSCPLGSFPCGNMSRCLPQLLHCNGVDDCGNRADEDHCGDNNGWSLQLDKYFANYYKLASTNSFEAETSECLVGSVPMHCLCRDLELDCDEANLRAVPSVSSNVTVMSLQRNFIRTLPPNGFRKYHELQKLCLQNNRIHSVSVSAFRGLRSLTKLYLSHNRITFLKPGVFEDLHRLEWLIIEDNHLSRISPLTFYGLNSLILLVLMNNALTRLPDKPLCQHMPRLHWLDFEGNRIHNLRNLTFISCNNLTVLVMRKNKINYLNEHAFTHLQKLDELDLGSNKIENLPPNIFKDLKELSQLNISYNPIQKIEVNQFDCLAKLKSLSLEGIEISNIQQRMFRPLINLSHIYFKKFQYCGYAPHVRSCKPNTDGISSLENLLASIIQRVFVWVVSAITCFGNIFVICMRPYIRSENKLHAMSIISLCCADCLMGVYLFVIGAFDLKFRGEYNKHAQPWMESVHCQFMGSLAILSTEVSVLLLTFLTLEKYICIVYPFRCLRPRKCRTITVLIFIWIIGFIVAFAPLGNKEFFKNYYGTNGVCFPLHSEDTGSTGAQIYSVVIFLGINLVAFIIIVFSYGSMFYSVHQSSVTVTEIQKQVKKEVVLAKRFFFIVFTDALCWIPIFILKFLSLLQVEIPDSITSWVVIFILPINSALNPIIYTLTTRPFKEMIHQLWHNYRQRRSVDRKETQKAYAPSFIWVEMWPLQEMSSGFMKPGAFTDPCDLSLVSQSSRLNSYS

B1: Fc_hRLX2_15-15AA (Fc fusion)
chain: [no letters for human IgG1 Fc]GGGGSGGGGSGGGGSQLYSALANKCCHVGCTKRSLARFCGGGGSGGGGSGGGGSSWMEEVIKLCGRELVRAQIAICGMSTWS
Take B1: the “EC50 (M), stimulation of cAMP production (HitHunter cAMP assay) in CHO-K1 RXFP1 Gs cells” value in the assay with human RXFP1 receptor [1] is 9.84e-10 M. In the assay with human RXFP1 receptor [2], the “hRXFP1 EC50 (M), cAMP HTRF assay in CHO-K1 RXFP1 Gs cells” value came out at 1.84e-09 M. In the assay with human RXFP2, the “hRXFP2 EC50 (M), cAMP HTRF assay in CHO-K1 RXFP2 Gs cells” value was above 9.32e-06 M. In the assay with mouse RXFP1 receptor, the “mRXFP1 EC50 (M), cAMP HTRF assay in CHO-K1 mRXFP1 Gs cells” value worked out at 1.51e-09 M.

B2: Fc_hRLX2_4-15AA (Fc fusion)
chain: [no letters for human IgG1 Fc]GGSPQLYSALANKCCHVGCTKRSLARFCGGGGSGGGGSGGGGSSWMEEVIKLCGRELVRAQIAICGMSTWS
With B2, the “EC50 (M), stimulation of cAMP production (HitHunter cAMP assay) in CHO-K1 RXFP1 Gs cells” value in the assay with human RXFP1 receptor [1] amounted to 9.32e-10 M.

The values above are taken from patent US20220073584A1 (AstraZeneca / MedImmune, published 2022).
